Experimental findings from PubChem BioAssay AID1745853 (National Center for Advancing Translational Sciences (NCATS), 2022) are described below.

What all share (assay): Primary Screen for Target Class Profiling of Small Molecule Inhibitors of Methyltransferases
For assay [1], the target named is Glycine N-methyltransferase (Homo sapiens) (UniProt Q14749). Conditions: purified enzyme, MTase-Glo SAH luminescence; measured here: GNMT inhibition; at 40 µM; stronger effect = lower value. In short, it runs like this: (§1)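 Each enzyme was assayed with SAM and its substrate. SAH formation detected by MTase-Glo luminescence; single-point 40 uM screen[…].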

Assay [2] deals with Guanidinoacetate N-methyltransferase (Homo sapiens) (UniProt Q14353). Conditions: purified enzyme, MTase-Glo SAH luminescence; measured here: GAMT inhibition; at 40 µM; stronger effect = lower value. Put shortly:
as §1

The target of assay [3] is Histamine N-methyltransferase (Homo sapiens) (UniProt P50135). Conditions: purified enzyme, MTase-Glo SAH luminescence; measured here: HNMT inhibition; at 40 µM; stronger effect = lower value. In short, it runs like this:
as §1

For assay [4], the target named is Nicotinamide N-methyltransferase (Homo sapiens) (UniProt P40261). Conditions: purified enzyme, MTase-Glo SAH luminescence; measured here: NNMT inhibition; at 40 µM; stronger effect = lower value. In short, it runs like this: as §1
Assay [5] has as its target Phenylethanolamine N-methyltransferase (Homo sapiens) (UniProt P11086). Particulars: purified enzyme, MTase-Glo SAH luminescence; measured here: PNMT inhibition; at 40 µM; stronger effect = lower value. In short, it runs like this:
as §1

Several values for one entry are separate records, joined by “and”; a condition that tells them apart may be missing. Identical values can stand only once. The list shows a part of the results. Shown are side measurements of this screen, not its main read-out; they come without a call.
% is set by controls: 0 for no effect and ±100 for the full control effect.

For the compound `CC(=O)NC(C(=O)OC1CCC(C)(C)C2CC=C3C(=O)OCC3(O)C12C)C(C)C` (stereo not given), the activity change, negative = inhibition was 0% in assay [1]; -14% in assay [2]; -1.55% in assay [3]; -23.2% in assay [4]; -1.82% in assay [5].
Take `CCCN1C(=O)c2cc(C(=O)N3CCN(C4CCCCC4)CC3)nn2CC1(C)C(=O)NC1CCCC1` (stereo not given): the activity change, negative = inhibition in assay [1] was -6.85%; in assay [2], -3.09%; in assay [3], -1.87%; in assay [4], -7.73%; in assay [5] it was -5.21%.
As to `CN(Cc1ccno1)Cc1cn(C)nc1-c1ccc(C2CCCCC2)cc1`, the activity change, negative = inhibition was 1.28% in assay [1]; 1.68% in assay [2]; 3.86% in assay [3]; -6.82% in assay [4]; 15.2% in assay [5].
Consider `CC[C@@]1(O)C(=O)OCc2c1cc1n(c2=O)Cc2cc3c(CN(C)C)c(O)ccc3nc2-1`, for which the activity change, negative = inhibition in assay [1] is -59.8% and -1.29%; in assay [2], -8.38% and 3.82%; in assay [3] it was -12.9% and -9.62%; in assay [4], -11.9% and -10.8%; in assay [5], -45% and -2.45%.
For the compound `CCCn1c(=O)c2ccc(C(=O)NC(C)CC)cc2n2c(SCC(=O)Nc3ccc(F)cc3)nnc12` (stereo not given), the activity change, negative = inhibition in assay [1] is 0.517%; in assay [2] it was 1.77%; in assay [3], 8.91%; in assay [4], -3.56%; in assay [5] it was 3.04%.
For `COc1cccc(CN[C@H]2[C@H](O)[C@H](O)C[C@@H]2c2ccc(N3CCOCC3)nc2)c1`, in that order: -3.73%, -1.32%, -0.293%, -10.8% and -3.64%.
For `CN1CCCCCCN(C(=O)c2cc(CN3CCOCC3)on2)[C@H]2CCC[C@H]2C1=O`, in that order: -3.36%, -21.8%, -3.08%, -18.5% and -4.23%.
For the compound `O=C(Cn1c(=O)n2nc(-c3ccccc3)nc2c2ccccc21)N1CCN(c2ccc(F)cc2)CC1`, the activity change, negative = inhibition in assay [1] was found to be 12.2%; in assay [2], 0.505%; in assay [3], 11.2%; in assay [4] it was 8.33%; in assay [5], 2.86%.
As to `CCc1ccc(NC(=O)Cn2nc3n(Cc4ccccc4)c(=O)c4ccccc4n3c2=O)cc1`, the activity change, negative = inhibition in assay [1] was -2.51%; in assay [2] it was 2.76%; in assay [3], 0.246%; in assay [4], 1.52%; in assay [5], -1.44%.
As to `COC(=O)C1(C)c2[nH]c3ccccc3c2CCN1C(=O)CCl` (stereo not given), the activity change, negative = inhibition in assay [1] was -5.52%; in assay [2] it was -9.4%; in assay [3] it was 12.6%; in assay [4], -9.96%; in assay [5], 5.02%.
As to `C=C1CCc2occ(C)c2[C@H]2[C@H]1[C@@]13O[C@@]1(C[C@@H](C)[C@H]3OC(C)=O)[C@H]1O[C@@]21C`, the activity change, negative = inhibition in assay [1] was 0.48%; in assay [2], -2.92%; in assay [3] it was 8.43%; in assay [4], -13.7%; in assay [5], 3.84%.
Consider `COc1ccc(C(=O)Cn2nc3n(CC(C)C)c(=O)c4ccc(C(=O)NCC(C)C)cc4n3c2=O)cc1`, for which the activity change, negative = inhibition in assay [1] was 5.52%; in assay [2], 2.63%; in assay [3], 5.55%; in assay [4] it was 6.5%; in assay [5], 5.56%.
Taken in the same sequence, the figures for `CC(=O)OC/C(=C/C(=O)O)CC[C@@H]1C(C)=CC(=O)[C@@H]2C(C)(C)CCC[C@@]12C` were -4.38%, -3.84%, 3.18%, -12.6% and 0.389%.
For `COc1cccc(CN2C(=O)CSc3c(c4ccccc4n3C)C2C(=O)NCCC(C)C)c1` (stereo not given), in that order: 3.95%, 5.95%, -2.65%, -6.48% and 0.605%.
As to `CC1=CC(=O)CC(C)(C)C1(O)CCC(C)O` (stereo not given), the activity change, negative = inhibition in assay [1] is 2.13%; in assay [2], 7.94%; in assay [3], 9.54%; in assay [4], -7.7%; in assay [5], 8.34%.
As for `C=C1CCC[C@]2(C)CC[C@@](O)(C(=C)C(=O)O)C[C@@H]12`, the activity change, negative = inhibition was -11.6% in assay [1]; -12.7% in assay [2]; -3.59% in assay [3]; -24.6% in assay [4]; -20.4% in assay [5].
With `CCOCCCNC(=O)C1c2c(n(C)c3ccccc23)SCC(=O)N1c1ccccc1CC` (stereo not given), the activity change, negative = inhibition in assay [1] turned out to be 12.2%; in assay [2], 1.89%; in assay [3] it was 7.37%; in assay [4] it was 8.97%; in assay [5], 9.33%.
Take `O=C1CCCCC(C(=O)N2CCOCC2)N1` (stereo not given): the activity change, negative = inhibition in assay [1] was -0.32%; in assay [2], 1.97%; in assay [3] it was 1.87%; in assay [4], -1.64%; in assay [5] it was -0.296%.
For `O=C1CC(c2noc(COc3ccccc3)n2)CN1C1CCCCC1` (stereo not given), in that order: -0.396%, 0.769%, 1.7%, -3.24% and 1.99%.
`CC1CC(=O)C2=C(O1)OC1(C)CCC3C(C)(C)C=CC(=O)C3(C)C1C2` (stereo not given): the activity change, negative = inhibition in assay [1] was -7.55%; in assay [2], -8.59%; in assay [3], 5.98%; in assay [4], -95.6%; in assay [5], -2.38%.
For the compound `CN(c1cc(=O)c2ccnc(-c3cncnc3)c2o1)C1CCOCC1`, the activity change, negative = inhibition was -1.17% in assay [1]; 0.818% in assay [2]; 0.18% in assay [3]; -0.017% in assay [4]; 4.52% in assay [5].
Taken in the same sequence, the figures for `CCCN1C(=O)c2ccccc2CC1(C)C(=O)NC1CCCCCC1` (stereo not given) were -2.66%, 4.57%, 7.28%, 8.44% and 0.626%.
On to `C=Cc1ccc(Cn2nc3n(CC(C)C)c(=O)c4ccc(C(=O)NCC(C)C)cc4n3c2=O)cc1`, for which the activity change, negative = inhibition turned out to be 4.14% in assay [1]; 1.59% in assay [2]; 3.6% in assay [3]; 1.98% in assay [4]; 4.22% in assay [5].
With `CN(C)C(=O)c1cc2cnc(Nc3ccc(N4CCNCC4)cn3)nc2n1C1CCCC1`, the activity change, negative = inhibition in assay [1] was 1.35%; in assay [2], 2.81%; in assay [3], -3.85%; in assay [4], -46.8%; in assay [5] it was -8.25%.
Taken in the same sequence, the figures for `CC(C)CC1NC(=O)C2CC3(O)c4ccccc4NC3N2C1=O` (stereo not given) were -0.849%, -0.186%, 7.67%, -13.6% and -5.39%.
Taken in the same sequence, the figures for `CCCn1c(=O)c2ccccc2n2c(SCC(=O)NCc3ccc(Cl)cc3)nnc12` were -1.92%, 2.02%, 6.63%, -3.72% and 0.704%.
With `CC1(C(=O)NC2CCCCCC2)Cn2nc(-c3cccs3)cc2C(=O)N1c1ccccc1F` (stereo not given), the activity change, negative = inhibition was determined as 3.73% in assay [1]; 1.44% in assay [2]; 10.2% in assay [3]; 12% in assay [4]; 4.8% in assay [5].
Taken in the same sequence, the figures for `CCCC1(CO)CCCN(CC(=O)NC(C)(C)CC)C1` (stereo not given) were -4.24%, -4.49%, -1.59%, -7.78% and -5.14%.
For `O=C(NCc1cc2n(n1)CCCNC2)c1ccc(Cn2cnnn2)cc1`, in that order: -2.42%, 4.21%, -0.187%, -2.44% and 11.9%.
